The whole screen tested about 390,000 compounds, of which about 150 (0.038%) were called active. Inconclusive results, whose numbers are uncertain, are shown with a selection of clear calls. The call rests on the fitted dose curve; in most records, active means well fitted inhibition curve with a large enough effect; inconclusive means small, poorly fitted or top-dose-only effect; inactive means no such curve, though single readings can be large or run the other way. A potency beside an inconclusive call is a rough fit, not a confirmed value.
Molecular target: Regulator of G-protein signaling 4 (Homo sapiens) (UniProt P49798)
Test: Inhibitors of Regulator of G Protein Signaling (RGS) 4: qHTS; further: nearly all actives have a fitted effect of over 75% in size
Conditions: Transcreener GDP fluorescence polarization, RGS4-accelerated GTP hydrolysis; series mostly up to 114 µM
Method in brief: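 MLSMR compounds (23 nl, pin-transferred) preincubated 10 min at room temperature with a 500nM (2x) first reagent, then RGS4 at 900nM (2x) plus Transcreener GDP mix added; fluorescence polarization (620/688 nm) read before and after 90 min at 30 °C.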
On the % scale 0 is the no-effect control and ±100 the full control effect; potency means the concentration at half of the fitted maximal effect; tags describe the fitted curve by direction and shape.

Sequence of UniProt P49798 (P49798 whole entry, looked up): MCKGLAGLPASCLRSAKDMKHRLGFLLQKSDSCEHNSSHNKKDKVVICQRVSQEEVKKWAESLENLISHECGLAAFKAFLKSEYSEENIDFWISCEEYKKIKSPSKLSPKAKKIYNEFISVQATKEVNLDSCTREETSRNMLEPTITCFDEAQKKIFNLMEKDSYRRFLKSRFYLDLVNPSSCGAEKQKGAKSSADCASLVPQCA

SMILES | Potency | activity change, negative = inhibition
COC(=O)C1CCN(S(=O)(=O)Cc2ccccc2)CC1 | inconclusive: 100 µM [inhibitor, partial curve, poor fit] | 
O=C1c2ccccc2-c2cccc(C(=O)N3CCCCCC3)c21 | inactive | 
CCC1C(C#N)=C(SCC(N)=O)NC2=C1C(=O)CC(C)(C)C2 (centres undefined) | inconclusive: 100 µM [inhibitor, partial curve, poor fit] | 
O=C(CN1C2=NCCCN2c2ccccc21)c1ccc(Br)s1 | inconclusive: 79.4 µM [inhibitor, single point] | 
Cc1cc(=O)[nH]c(/N=C(\N)Nc2ccc(Oc3ccccc3)cc2)n1 | inactive | 
CCC(C)NCCOCCOc1ccc(Cl)c(C)c1C (centres undefined) | inactive | 
CN(C(=O)CSc1ccc(S(=O)(=O)N2CCCCC2)cn1)c1ccccc1 | inactive | 
O=C1ON(Cc2ccccc2)C(c2ccccc2)N1c1ccccc1 (centres undefined) | inconclusive: 100 µM [inhibitor, single point] | 
O=S(=O)(c1ccc(NC(=S)N/N=C/c2c3ccccc3cc3ccccc23)cc1)N1CCOCC1 | inactive | 
O=c1cc(-c2ccc(O)cc2)oc2c(-c3c(O)cc(O)c4c(=O)cc(-c5ccc(O)cc5)oc34)c(O)cc(O)c12 | inactive | 
CN(C)C(=O)c1ccc(NC(=O)c2ccc(-c3ccc(Cl)cc3)o2)cc1 | inconclusive: 100 µM [inhibitor, partial curve, poor fit] | 
COc1ccc(C(C[N+](=O)[O-])c2c(-c3ccccc3)cc3ccccn23)cc1 (centres undefined) | inconclusive: 50.1 µM [inhibitor, partial curve, poor fit] | 
CCOC(=O)c1cn[nH]c1NC(=S)Nc1ccccc1 | inconclusive: 100 µM [inhibitor, single point] | 
Cc1[nH]c(=O)c(C#N)cc1-c1ccc2nccn2c1 | inconclusive: 37.7 µM [inhibitor, single point] | 
CN(C)/C=N/c1nc2ncc(-c3ccc(Cl)cc3)c(/N=C/N(C)C)n2n1 | inconclusive: 50.1 µM [inhibitor, partial curve, poor fit] | 
CCCOc1ccccc1-n1sc2c(c1=S)-c1cc(OC)cc3c1N(C(=O)C3=O)C2(C)C | inactive | 
CN1CC=C2C(C#N)=C(N)C(C#N)(C#N)C(c3ccsc3)C2C1 (centres undefined) |  | inactive: -1.92% [at 11.4 µM]
O=C(Nc1cc(S(=O)(=O)N2CCOCC2)ccc1N1CCCC1)c1ccc(Cl)cc1 | inconclusive: 79.4 µM [inhibitor, partial curve, poor fit] | 
COc1cc(NS(=O)(=O)c2ccc(Br)s2)cc(OC)c1 | inactive | 
CCCCn1c(N)c(N(CC)C(=O)CCNC(=O)c2ccc(Cl)cc2)c(=O)[nH]c1=O | inactive | 
Cc1ccc(NC(=O)c2ccc(NC(=O)CCS(=O)(=O)c3cccs3)cc2)cc1F | inactive | 
O=C(O)/C=C/c1ccc(OCc2cccc(F)c2)cc1 | inconclusive: 20 µM [inhibitor, full curve, poor fit] | 

SMILES | Potency | activity change, negative = inhibition
CN(C)CCCNC(=O)/C(=C/c1ccc(-c2ccc([N+](=O)[O-])cc2)o1)NC(=O)c1ccccc1 | inactive | 
C#CCOCCOCCOCCNc1nc(N2CCN(C(=O)CCCCCCCCCCNC(=O)[C@H](CCCCN)n3cc(CCO)nn3)CC2)nc(N2CCN(C(=O)CCCCCCCCCCNC(=O)[C@H](CCCCN)n3cc(C[C@@H](C)CC)nn3)CC2)n1 | inconclusive: 20 µM [inhibitor, full curve, poor fit] | 
COc1ccccc1N1CCN(C(=O)C2CCCN(S(=O)(=O)c3ccc4c(c3)CCCN4C(C)=O)C2)CC1 (centres undefined) | inconclusive: 70.8 µM [inhibitor, single point] | 
CCSc1nc(-c2cccs2)nc2ccccc12 | inconclusive: 31.6 µM [inhibitor, full curve, poor fit] | 
CC(NC(=O)c1ccc(Cn2cc([N+](=O)[O-])cn2)cc1)c1ccccc1 (centres undefined) | inconclusive: 79.4 µM [inhibitor, partial curve, poor fit] | 
COc1ccc(NC(=O)/C(Cl)=C(/Cl)S(=O)(=O)Cc2ccc(C)cc2)cn1 | inconclusive: 17.8 µM [inhibitor, full curve, poor fit] | 
Brc1ccccc1-n1nnc(-c2ccnc3ccccc23)n1 | inconclusive: 89.1 µM [inhibitor, single point] | 
CN(C(Cc1ccc(OS(=O)(=O)c2cccc3cnccc23)cc1)C(=O)N1CCN(c2ccccc2)CC1)S(=O)(=O)c1cccc2cnccc12 (centres undefined) | inconclusive: 21.2 µM [inhibitor, partial curve, poor fit] | 
CCC1=C/C(=C/c2sc3ccccc3[n+]2CC)CC(C)(C)C1 | inconclusive: 89.1 µM [inhibitor, partial curve, poor fit] | 
OCCN1CCN(CCOc2ccccc2-c2ccccc2)CC1 | inconclusive: 89.1 µM [inhibitor, single point] | 
Cc1cccnc1NC(=O)CSc1ncnc2sc(C)c(C)c12 | inconclusive: 17.8 µM [inhibitor, full curve, poor fit] | 
N#Cc1c(-c2ccccc2)cc(-c2ccccc2)nc1SCC(O)CS(=O)(=O)Cc1ccc(Cl)cc1 (centres undefined) | inconclusive: 50.1 µM [inhibitor, partial curve, poor fit] | 
CCOc1c(Cl)cc(CNc2ccc(N3CCCC3)cc2)cc1OC | inconclusive: 35.5 µM [inhibitor, partial curve, poor fit] | 
CC(=O)Nc1ccc(S(=O)(=O)NCCc2cn3nc(C)c(C)nc3n2)cc1 | inactive | 
CCN(Cc1nc(-c2ccc(OC)c(OC)c2)no1)S(=O)(=O)c1ccc(OC)cc1 | inactive | 
CCS(=O)(=O)c1ccc2oc(SCC(=O)NC3CCCC(C)C3C)nc2c1 (centres undefined) | inactive | 
Cc1ccc(-c2c(C3C4C=CCC(C)C4C(=O)N3Cc3ccccc3)ccc3ccccc23)cc1 (centres undefined) | inactive | 
CCc1noc(C)c1C(=O)Nc1sc(C(=O)N(C)C)c(C)c1C#N | inconclusive: 50.1 µM [inhibitor, partial curve, poor fit] | 
O=C(CN1C(=O)C2CC=CCC2C1=O)Nc1nnc(SCc2ccc(Cl)cc2)s1 (centres undefined) | inconclusive: 79.4 µM [inhibitor, single point] | 
CCCOc1ccc(-c2csc(N)n2)cc1[N+](=O)[O-] | inactive | 
CCCNC(=O)c1ccc2c(c1)nc1n2CCCCC1 | inconclusive: 89.1 µM [inhibitor, single point] | 
O=C(Cn1c2ccc(F)cc2c2nc3n(c(=O)c21)CCS3)Nc1ccc(Cl)cc1F | inconclusive: 50.1 µM [inhibitor, partial curve, poor fit] | 

SMILES | Potency | activity change, negative = inhibition
C=CCN([C@H](C(=O)OC)C(C)C)S(=O)(=O)CCNCc1ccccc1 | inactive | 
Cc1ccc(-c2csc(NC(=O)CSc3nc(C)cc(=O)[nH]3)n2)cc1 | inconclusive: 50.1 µM [inhibitor, partial curve, poor fit] | 
Cn1c(=NC(=O)CCl)sc2ccccc21 | inconclusive: 100 µM [inhibitor, single point] | 
Cc1ccc(S(=O)(=O)N2CCN(Cc3ccccc3Cl)CC2)cc1 | inconclusive: 89.1 µM [inhibitor, partial curve, poor fit] | 
Cc1c(-c2ccc(Cl)cc2)noc1C1CCN(CCc2ccccc2)CC1 | inconclusive: 0.006 µM [inhibitor, full curve, poor fit] | 
Cc1cccc(-c2cc(C(=O)Nc3ccc4c(c3)OCCO4)c3ccccc3n2)c1 | inconclusive: 70.8 µM [inhibitor, single point] | 
Cc1c2c(c(C)n1C)C(C(=O)NC1CCCCC1)N(Cc1ccccc1)C2=O (centres undefined) | inconclusive: 89.1 µM [inhibitor, single point] | 
COc1ccc2nc(-c3ccccc3)[nH]c(=O)c2c1 | inactive | 
CC(=O)Nc1ccc(NC(=O)C2(C)CC2(Cl)Cl)cc1 (centres undefined) | inconclusive: 50.1 µM [inhibitor, partial curve, poor fit] | 
Cc1c(Cl)cccc1NC(=S)N=Nc1c(O)n(CN2CCOCC2)c2ccccc12 | inactive | 
CCCS(=O)(=O)Nc1ccc(Nc2c3ccccc3nc3ccccc23)c(OC)c1 | inconclusive: 79.4 µM [inhibitor, partial curve, poor fit] | 
Cn1c(=O)c([N+](=O)[O-])c(Oc2ccccc2)c2ccccc21 | inconclusive: 44.7 µM [inhibitor, partial curve, poor fit] | 
COC1=C(OC)C(=O)C(Sc2ccc3ccccc3c2)=CC1=O | inconclusive: 31.6 µM [inhibitor, full curve, poor fit] | 
CC1=CC2=NC(=O)/C(=C\c3cc(C)n(-c4ccc(F)cc4)c3C)C(=N)N2O1 | inactive | 
COc1ccc(-n2nc3c(N4CCC(C(=O)NCc5ccccc5C)CC4)nnc(C)c3c2C)cc1 | inconclusive: 79.4 µM [inhibitor, partial curve, poor fit] | 
CC(=O)c1cccc(NC(=O)CC2S/C(=N/N=C/c3cccs3)NC2=O)c1 (centres undefined) | inconclusive: 35.5 µM [inhibitor, full curve, poor fit] | 
CC(C)CC(=O)NC1(C(F)(F)F)C(=O)Nc2c1c(=O)n(C)c(=O)n2C (centres undefined) | inconclusive: 89.1 µM [inhibitor, single point] | 
CCN(CC)c1ccc(N=Cc2ccc(N(CC)CC)cc2O)cc1 | inconclusive: 31.6 µM [inhibitor, partial curve, poor fit] | 
COc1ccc2c(c1)CC/C(=C\c1ccc(C)o1)C2=O | inconclusive: 50.1 µM [inhibitor, partial curve, poor fit] | 
Cc1ccc(CN(C)C(=O)COC(=O)CSc2ccc([N+](=O)[O-])cc2)cc1 | inconclusive: 44.7 µM [inhibitor, partial curve, poor fit] | 

Reference: PubChem BioAssay AID504845 (National Center for Advancing Translational Sciences (NCATS), 2011)
